# According to PubChem BioAssay AID485297 (National Center for Advancing Translational Sciences (NCATS), 2010):
# About 9,100 (2.8%) of roughly 320,000 compounds were called active. This list was built around the results that the source calls inconclusive (neither active nor inactive); the mix of calls is not that of the screen. Calls come from the whole dose curve; as a rule, active = well fitted activation curve with a large enough effect; inconclusive = small, poorly fitted or top-dose-only effect; inactive = no such curve, though single readings can be large or run the other way. Potencies of inconclusive entries are left out as doubtful fits.
# Experiment: qHTS Assay for Rab9 Promoter Activators; note: nearly all actives have a fitted effect of over 60% in size; for activation, negative = inhibition: % of control where 0% means no effect
# Conditions: Huh7 Rab9 promoter-luciferase reporter, luminescence, 24 h; series mostly up to 9.22 µM; activation, negative = inhibition: at the top concentration
# Procedure, shortened: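 Steps: seed 1500 Huh7 Rab9-luc cells per well, rest 2 h at 37 °C; add compound in DMSO; incubate 24 h; add luciferase reagent, 10 min ambient; read luminescence.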
# Potency is the fitted concentration of half-maximal effect; tags give direction and shape of the fitted curve.
SMILES,Potency,"activation, negative = inhibition"
O=C(NCCNc1ccccc1[N+](=O)[O-])c1ccccc1F,"inconclusive [activator, partial curve]",
CCc1c(C)nc(SCC(=O)c2cccs2)c(C#N)c1C,"inconclusive [activator, single point]",
CCCC(=O)Nc1ccc(NC(=O)c2cccs2)cn1,"inconclusive [activator, single point]",
COCCn1c(SCC(=O)NCc2ccccc2)nc2ccccc21,"inconclusive [activator, single point]",
O=C(C[n+]1cn(C(F)F)c2ccccc21)c1ccc(OC(F)F)cc1,"inconclusive [activator, partial curve]",
O=C(NCCCN1CCN(c2ccccc2F)CC1)C1CC(=O)N(C2CCCC2)C1 (configuration not stated),,inactive: -10.4%
CCn1c2ccc(F)cc2c2nnc(SCCN3CCCCC3)nc21,,inactive: 0.0992%
COc1ccc(C2C(C(C)=O)=C(O)C(=O)N2CCCn2ccnc2)cc1 (configuration not stated),,inactive: -7.37%
CC(=O)N1CCN(C(=O)c2ccc3oc(CCCc4ccccc4)nc3c2)CC1,,inactive: 4.9%
CCCNC(=O)Nc1ccc2c(c1)nc(C)n2C,"inconclusive [activator, single point]",
O=C1C2CC(O)CN2C(=S)N1Cc1ccccc1 (configuration not stated),,inactive: -3.15%
Cc1cc(C)c(C)c(OCC(=O)O/N=C(\N)c2cccnc2)c1,,inactive: -0.0981%
COC(=O)c1ccc(N=NN2CCOCC2)cc1,"inconclusive [activator, partial curve]",
O=C(NCC1CC1(Cl)Cl)Nc1ccc(Cl)c(Cl)c1 (configuration not stated),"inconclusive [activator, partial curve]",
Cc1ccc(C)c(OCC(=O)Nc2cccc(C(=O)O)c2)c1C,"inconclusive [activator, single point]",
O=C(Nc1cccc([N+](=O)[O-])c1)Nc1ccc2c(c1)CCC2,"inconclusive [activator, partial curve]",
COc1ccc(CCN2CC3=C(C2=O)C(c2ccccc2)NC(=O)N3C)cc1OC (configuration not stated),,inactive: 4.69%
CN(CC(=O)Nc1ccccc1C(F)(F)F)C(=O)CN1C(=O)C2CCCCC2C1=O (configuration not stated),,inactive: -4.95%
CNC(=O)CSc1ncnc2c1cnn2-c1ccccc1,"inconclusive [activator, single point]",
CC(=O)Nc1ccc(-c2csc(NCc3ccccc3)n2)cc1,"inconclusive [activator, single point]",
Cc1ccc(C(=O)Nc2ccc(C(=O)/C=C/c3cccs3)cc2)cc1,"inconclusive [activator, single point]",
COc1ccc(/C=N/N2CCN(C3c4ccccc4-c4ccccc43)CC2)cc1O,,inactive: -0.751%
CCCCCN(C(=O)CCC(=O)OCc1ccc(Cl)cc1Cl)c1c(N)n(CCCC)c(=O)[nH]c1=O,,inactive: -0.889%
O=C(NCc1cccs1)c1cc(-c2cccs2)on1,active: 3.55 µM,
Cn1c(=O)c(C(=O)Nc2ccccc2S(N)(=O)=O)c(O)c2ccccc21,"inconclusive [activator, single point]",
CCCCCCCCCCS(=O)(=O)N/N=C/c1ccc([N+](=O)[O-])cc1,,inactive: -0.346%

SMILES,Potency,"activation, negative = inhibition"
CC(C)[C@@H]1NC(=O)c2cc([N+](=O)[O-])cc(F)c2NCCC[C@@H](C(N)=O)NC(=O)[C@H](CO)NC1=O,,inactive: 8.76%
O=C(Nc1cccc(F)c1)/C(=C/c1ccco1)NC(=O)c1ccco1,"inconclusive [activator, partial curve, poor fit]",
CCOC(=O)c1ccc(NC(=O)c2ccco2)cc1,active: 2.24 µM,
Cc1ccc(Nc2nc(-c3cccnc3)cs2)cc1Cl,"inconclusive [activator, partial curve]",
CCC(=O)Oc1cccc(C(=O)Nc2ccc(-c3nnc(-c4ccco4)o3)cc2)c1,"inconclusive [activator, single point]",
O=C(O)/C=C/C(=O)NNC(=O)c1ccc(Cl)cc1Cl,,inactive: 13.9%
O=C(Nc1nnc(CC2=CCCCC2)s1)c1cccs1,"inconclusive [activator, partial curve]",
COc1cc(/C=C(\C#N)c2nc3ccccc3[nH]2)ccc1OC(=O)c1ccco1,"inconclusive [activator, single point]",
O=C(Cc1csc(NC(=O)Nc2cccc(Cl)c2)n1)NCc1ccccn1,"inconclusive [activator, single point]",
COc1cccc(OCc2cc(C(=O)N3CCN(C)C(c4ccccc4)C3)no2)c1 (configuration not stated),"inconclusive [activator, partial curve]",
Cc1ccc(/C=N/N2CCN(c3ccccn3)CC2)cc1,"inconclusive [activator, partial curve]",
COc1ccc(-c2nnc(NC(=O)c3c(OC)cccc3OC)s2)cc1,,inactive: 3.03%
COc1ccc2nc(SCC(=O)N3CCNC3=O)[nH]c2c1,active: 2 µM,
COCCNC(=O)c1ccc2c3n(nc2c1)-c1ccccc1CO3,active: 1 µM,
CCc1c(C#N)c(SCc2c(C)noc2C)nc2c1C(=O)CC(C)(C)C2,,inactive: 1.83%
COc1ccc(NC(=S)N(CCc2c(C)[nH]c3ccc(C)cc23)Cc2ccco2)cc1,,inactive: -14.6%
COc1ccc(C2=NN(CN3C(=O)C(=O)c4ccccc43)C(c3ccc(OC)cc3)C2)cc1 (configuration not stated),active: 3.55 µM,
O=[N+]([O-])c1ccc2nc(-c3ccccc3)[nH]c2c1,active: 2.51 µM,
O=C(CSc1nnc(-c2cccnc2)o1)Nc1cccc(F)c1,"inconclusive [activator, single point]",
C(=N\Nc1nc(-c2ccccc2)cs1)/c1cccs1,"inconclusive [activator, single point]",
COc1ccc(-c2csc(N3N=C(C)C(C)C3=O)n2)cc1 (configuration not stated),active: 4.47 µM,
O=C(NCCO)/C(=C/c1ccc2c(c1)OCO2)NC(=O)c1ccc(Br)cc1,"inconclusive [activator, partial curve]",
COc1cc(NC(=O)c2oc3ccccc3c2C)ccc1NC(=O)c1ccco1,"inconclusive [activator, single point]",
Cc1ccc(CCC(=O)Nc2ccccc2F)s1,"inconclusive [activator, partial curve]",
O=C(c1cc(-c2ccccc2)on1)N1CCCCCC1,active: 3.55 µM,
COc1ccc(-c2nc3ccc(C)cn3c2NCc2ccc3c(c2)OCO3)cc1,"inconclusive [activator, partial curve]",

SMILES,Potency,"activation, negative = inhibition"
CCc1ccn2cc(-c3ccc4c(c3)OCO4)nc2c1,"inconclusive [activator, partial curve]",
CCOC(=O)CCn1nc(-c2ccc(Cl)cc2)cc1N,"inconclusive [activator, single point]",
CC(=O)c1cccc(NC(=O)Nc2ccc(C)cc2)c1,"inconclusive [activator, partial curve]",
Cc1nc2nc(-c3cccs3)cn2nc1C,active: 0.501 µM,
O=C(Nc1cnc2ccccc2c1)N1CCCCC1,active: 1.26 µM,
Cn1c(=O)c(=O)n(C)c2cc(S(=O)(=O)CCC(=O)Nc3c(F)c(F)c(F)c(F)c3F)ccc21,,inactive: 0.635%
COc1ccc(OC)c(CCNC(=O)CS(=O)(=O)Cc2nc(-c3ccccc3Cl)oc2C)c1,,inactive: -1.55%
O=C(O)c1cc2cc(OCc3ccccc3)ccc2[nH]1,,inactive: 10.4%
CSc1nc(N)n2nc(-c3ccc(Cl)cc3)cc2n1,active: 1.58 µM,
Cc1csc(=NC(=O)c2ccccc2)n1C,active: 2.51 µM,
CCC(=O)Nc1ccc(C(=O)OCc2ccccc2)cc1,"inconclusive [activator, single point]",
COc1ccc(-c2ccc(SCC(=O)N3CC(=O)Nc4ccccc43)nn2)cc1,,inactive: 28.1%
COCCCNc1oc(/C=C/c2ccccc2)nc1C#N,active: 1.12 µM,
Cc1ccc(C(=O)N2CCc3ccccc32)o1,active: 1.58 µM,
COc1ccc(-c2csc(NC(=O)COC(=O)Cc3ccc(Cl)cc3Cl)n2)cc1,"inconclusive [activator, partial curve]",
COc1ccccc1NC(=O)c1cc(C(=O)O)ccc1C(=O)O,"inconclusive [activator, single point]",
CCN(CC)CCn1c2ccccc2c2nc3ccccc3nc21,"inconclusive [activator, single point]",
Cc1cc(NS(=O)(=O)c2ccc(NC(=O)COc3c(C)cc(Br)cc3C)cc2)no1,,inactive: -2.26%
C=CCn1c(O)c(C=Nc2ccccc2)sc1=S,"inconclusive [activator, single point]",
Cc1ccc(C(=O)/C=C/c2c(C)nn(-c3ccccc3)c2Cl)cc1,"inconclusive [activator, single point]",
COc1cccc(CNc2nc3nc(C)c(Cl)c(C)n3n2)c1,"inconclusive [activator, partial curve]",
CC(=O)c1cccc(NC(=S)NC(=O)c2ccc(Cl)cc2)c1,"inconclusive [activator, partial curve]",
Cc1ccc2cc(CCNC(=O)c3ccc(S(=O)(=O)N4CCOCC4)cc3)c(=O)[nH]c2c1,"inconclusive [activator, single point]",
CCOc1ccc(C(=O)NCCCCNC(=O)c2ccc(OCC)cc2)cc1,"inconclusive [activator, partial curve]",
O=C(Nc1ncc(Cc2cccc(Cl)c2)s1)C1CCCO1 (configuration not stated),"inconclusive [activator, partial curve]",
